Data reported in PubChem BioAssay AID360 (National Center for Advancing Translational Sciences (NCATS), 2006).
Hit rate of the full screen: of about 48,000 compounds, about 550 (1.1%) were called active. About 4% were inconclusive and are not listed. No stated cut-off is given here; in the data, active means potency below about 15 µM; inconclusive means mostly about 16 µM to 33 µM; inactive means weaker than that. This is one part of the list.

Target: Lysosomal acid glucosylceramidase (Homo sapiens) (UniProt P04062)
Test: Glucocerebrosidase;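 further: the screen sought inhibitors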
Details: purified enzyme, resorufin glucoside fluorescence (screen aimed at inhibitors), 20 min
Method in brief: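 Compounds titrated against 0.2 nM normal enzyme, 30 uM resorufin beta-D-glucopyranoside substrate, citrate/phosphate buffer with taurocholate and tween-20, pH 5.9. Reaction ran 20 min at room temperature; fluorescence (Ex 548/Em 600) gave AC50.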
Potency means the concentration at half of the fitted maximal effect.

Chain of UniProt P04062 (P04062 whole entry, looked up): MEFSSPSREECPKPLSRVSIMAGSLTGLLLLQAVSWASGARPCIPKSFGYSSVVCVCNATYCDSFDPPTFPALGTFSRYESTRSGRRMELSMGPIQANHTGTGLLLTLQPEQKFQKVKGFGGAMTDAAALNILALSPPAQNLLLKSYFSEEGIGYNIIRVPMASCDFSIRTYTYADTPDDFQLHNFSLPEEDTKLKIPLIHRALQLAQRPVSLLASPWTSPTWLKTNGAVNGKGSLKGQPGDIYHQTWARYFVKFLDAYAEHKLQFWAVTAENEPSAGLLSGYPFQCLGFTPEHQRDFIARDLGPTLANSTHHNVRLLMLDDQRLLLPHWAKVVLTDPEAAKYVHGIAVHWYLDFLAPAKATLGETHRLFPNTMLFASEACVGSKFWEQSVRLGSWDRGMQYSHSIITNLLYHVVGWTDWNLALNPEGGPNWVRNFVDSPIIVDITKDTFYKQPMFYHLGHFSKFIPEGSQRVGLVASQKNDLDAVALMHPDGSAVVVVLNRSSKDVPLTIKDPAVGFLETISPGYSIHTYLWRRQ

Structure (SMILES)	Potency
Cc1cc(NC(=O)CCC(=O)N(CC(=O)NC2CCCC2)c2ccc3c(c2)OCCO3)no1	inactive: > 76.9 µM
CCOc1ccc(S(=O)(=O)Nc2nc3ccccc3nc2N2CCN(C)CC2)cc1	inactive: > 76.9 µM
CC(C)NC(=O)c1cc(=O)n(C)c(=O)n1C	inactive: > 76.9 µM
COc1ccc(-n2ncc3c(NCc4cccs4)ncnc32)cc1	inactive: > 76.9 µM
Brc1cccc(-c2n[nH]c(-c3ccccc3)n2)c1	inactive: > 76.9 µM
CCOc1cc(S(=O)(=O)NC2CC(C)(C)NC(C)(C)C2)ccc1F	inactive: > 76.9 µM
CN(CC(=O)Nc1ccc(F)c(F)c1)S(=O)(=O)c1cccc2nsnc12	inactive: > 76.9 µM
CC(=O)N(CC1CCCO1)C1(C(=O)NC2CCCC2)CCCCC1 (stereo unspecified)	inactive: > 76.9 µM
Cc1ccc2cc(CN(CCN3CCOCC3)Cc3nnnn3Cc3ccco3)c(=O)[nH]c2c1C	inactive: > 76.9 µM
COc1ccc(-n2c(NC(=O)c3ccco3)c(C#N)c3nc4ccccc4nc32)cc1	inactive: > 76.9 µM
COc1ccc2c(c1)CCc1c(C(=O)Nc3ccn(Cc4ccc(C)cc4)n3)noc1-2	inactive: > 76.9 µM
COC(=O)c1ccc(NS(=O)(=O)N(C)C)cc1	inactive: > 76.9 µM
CCOC(=O)c1sc(Nc2nc3c(OC)cccc3s2)nc1C	inactive
CCCc1nc2ccccc2c(C(=O)OCc2nnc(-c3cc(OC)c(OC)c(OC)c3)o2)c1CC	inactive: > 76.9 µM
COc1ccc(NS(=O)(=O)c2ccc(N)c(C(=O)O)c2)cc1	inactive: > 76.9 µM
Cc1ccc(-c2ccc(=O)n(CC(=O)Nc3cccc(C(=O)N4CCN(C)CC4)c3)n2)cc1	inactive: > 76.9 µM
COCCCn1c(SCC(=O)NC2CCCC2)nnc1-c1ccco1	inactive: > 76.9 µM
Cc1ccc(-n2nnnc2SCC(=O)c2c(N)n(CC(C)C)c(=O)n(C)c2=O)cc1	inactive: > 76.9 µM
Cn1c(C(C#N)C(=O)Cc2cccc3ccccc23)nc2ccccc21 (stereo unspecified)	inactive: > 76.9 µM

Structure (SMILES)	Potency
COc1ccccc1Nc1ncc(C(=O)N2CCC(C(N)=O)CC2)c2ccccc12	inactive: > 76.9 µM
Cc1nnn(C23CC4CC(CC(C4)C2)C3)n1	inactive: > 76.9 µM
Cc1cc(N2C(=O)C3C4C=CC(C4)C3C2=O)no1 (stereo unspecified)	inactive: > 76.9 µM
O=C(COC(=O)c1cc(S(=O)(=O)N2CCCCC2)ccc1N1CCOCC1)NC1CCCCC1	inactive: > 76.9 µM
Cc1ccc2cc(CN(CC3CCCO3)S(=O)(=O)c3c(C)ccc4nsnc34)c(=O)[nH]c2c1 (stereo unspecified)	inactive: > 76.9 µM
COc1ccccc1-c1c(C)nn2c(C)c(C(C)=O)cnc12	inactive: > 76.9 µM
CC(=O)NC(CCS(C)(=O)=O)C(=O)Nc1cccc(C(C)=O)c1 (stereo unspecified)	inactive: > 76.9 µM
CSc1nsc(SC)c1NC(=O)Nc1ccccn1	inactive: > 76.9 µM
COc1ccc(-c2cn3cc(Cl)ccc3n2)cc1OC	active: 2.83 µM
O=C(OCCN=C1NS(=O)(=O)c2ccccc21)c1cccnc1	inactive: > 76.9 µM
COC(=O)c1c(-c2cccc(C)c2)csc1N	inactive: > 76.9 µM
CCCN(CCC)S(=O)(=O)c1ccc(C(=O)Nc2nnc(-c3cc(OC)cc(OC)c3)o2)cc1	inactive: > 76.9 µM
CN(C)c1nc(NCc2ccccc2)nc(Oc2ccc(=O)[nH]n2)n1	inactive: > 76.9 µM
CCOC(=O)N1CCN(C(=O)c2ccc3nc(C)sc3c2)CC1	inactive: > 76.9 µM
Cc1occc1C(=O)NC(C)c1ccc2c(c1)OCO2 (stereo unspecified)	inactive: > 76.9 µM
CCOc1cccc(C(=O)Nc2nc(-c3ccc(S(=O)(=O)N4CCOCC4)cc3)cs2)c1	inactive: > 76.9 µM
O=C(NCC1CCCO1)c1cc(-c2ccncc2)nc2ccc(S(=O)(=O)N3CCOCC3)cc12 (stereo unspecified)	inactive: > 76.9 µM
COc1ccc(CC(=O)Nc2ccc(-c3nnc(-c4ccccc4)o3)cc2)cc1OC	inactive: > 76.9 µM
c1csc(-c2ncc3ccccn23)c1	inactive: > 76.9 µM

Structure (SMILES)	Potency
CC(=O)Nc1ccc(NC(=O)C2CCCN(c3nnc(-n4cccc4)s3)C2)cc1 (stereo unspecified)	inactive: > 76.9 µM
CC(=O)N1CCc2cc(Br)cc(S(=O)(=O)NCCCN3CCC(C)CC3)c21	inactive: > 76.9 µM
O=S(=O)(c1ccc(-c2ccccc2)cc1)N1CCOCC1	inactive: > 76.9 µM
COC(=O)c1sccc1NC(=O)Cn1nnc(-c2ccc(C)cc2)n1	active: 15.2 µM
CC1(C)Cc2c(sc3nc(SCC(=O)O)[nH]c(=O)c23)CO1	inactive: > 76.9 µM
O=C(Nc1cccc2nsnc12)c1ccc2c(c1)OCCO2	inactive: > 76.9 µM
CCOC(=O)c1c(NC(=O)c2ccc(S(=O)(=O)N3CCOCC3)cc2)sc2c1CCN(C)C2	inactive
Cc1cc(NC(=O)CCC(=O)N(c2ccccc2)C(C(=O)NC2CCCC2)c2ccncc2)no1 (stereo unspecified)	inactive: > 76.9 µM
Cc1ccc(C(C)C)c(OCC(=O)Nc2ccc(N3CCN(S(C)(=O)=O)CC3)cc2)c1	inactive: > 76.9 µM
COc1ccc(OCc2nnc(SC(C)C(=O)Nc3nccs3)n2-c2ccccc2)cc1 (stereo unspecified)	inactive: > 76.9 µM
Cc1ccc(NC(=O)CSc2nnc(Cn3cnc4ccccc43)o2)cc1	inactive: > 76.9 µM
COC(=O)c1ccccc1NC(=O)CN1C(=O)CSC1=O	inactive: > 76.9 µM
Cc1ccc(-c2nnc(SC(C)C#N)n2N)cc1 (stereo unspecified)	inactive: > 76.9 µM
Cc1cc(C)cc(N2C(=O)N(c3ccccc3C)C3CS(=O)(=O)CC32)c1 (stereo unspecified)	inactive: > 76.9 µM
CC(C)(C)NC(=O)NC(=O)COC(=O)Cn1c(C(F)(F)F)nc2ccccc21	inactive: > 76.9 µM
Nc1nc(COc2ccc3ccccc3c2)cs1	inactive: > 76.9 µM
O=C(Nc1ccccn1)Nc1cccs1	inactive: > 76.9 µM
O=C(NCc1ccccn1)C1CCCN(Cc2cnn(-c3ccccc3)c2-n2cccc2)C1 (stereo unspecified)	inactive: > 76.9 µM
